Assay results from PMC4336329 (PLoS ONE, 2015).
The whole screen tested about 310,000 compounds, of which about 14,000 (4.5%) showed an effect of 50% or more. Effects have a minus sign here. The list shows a part of the results.

What follows are molecules tested against human ether-à-go-go-related gene (hERG) potassium channel (human, UniProt Q12809) (assay: primary screen, population patch clamp on CHO cells stably expressing hERG).
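Further: peak tail current of the secondary pulse compared with the same well before compound.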

Chain of human ether-à-go-go-related gene (hERG) potassium channel (Q12809 whole entry, looked up): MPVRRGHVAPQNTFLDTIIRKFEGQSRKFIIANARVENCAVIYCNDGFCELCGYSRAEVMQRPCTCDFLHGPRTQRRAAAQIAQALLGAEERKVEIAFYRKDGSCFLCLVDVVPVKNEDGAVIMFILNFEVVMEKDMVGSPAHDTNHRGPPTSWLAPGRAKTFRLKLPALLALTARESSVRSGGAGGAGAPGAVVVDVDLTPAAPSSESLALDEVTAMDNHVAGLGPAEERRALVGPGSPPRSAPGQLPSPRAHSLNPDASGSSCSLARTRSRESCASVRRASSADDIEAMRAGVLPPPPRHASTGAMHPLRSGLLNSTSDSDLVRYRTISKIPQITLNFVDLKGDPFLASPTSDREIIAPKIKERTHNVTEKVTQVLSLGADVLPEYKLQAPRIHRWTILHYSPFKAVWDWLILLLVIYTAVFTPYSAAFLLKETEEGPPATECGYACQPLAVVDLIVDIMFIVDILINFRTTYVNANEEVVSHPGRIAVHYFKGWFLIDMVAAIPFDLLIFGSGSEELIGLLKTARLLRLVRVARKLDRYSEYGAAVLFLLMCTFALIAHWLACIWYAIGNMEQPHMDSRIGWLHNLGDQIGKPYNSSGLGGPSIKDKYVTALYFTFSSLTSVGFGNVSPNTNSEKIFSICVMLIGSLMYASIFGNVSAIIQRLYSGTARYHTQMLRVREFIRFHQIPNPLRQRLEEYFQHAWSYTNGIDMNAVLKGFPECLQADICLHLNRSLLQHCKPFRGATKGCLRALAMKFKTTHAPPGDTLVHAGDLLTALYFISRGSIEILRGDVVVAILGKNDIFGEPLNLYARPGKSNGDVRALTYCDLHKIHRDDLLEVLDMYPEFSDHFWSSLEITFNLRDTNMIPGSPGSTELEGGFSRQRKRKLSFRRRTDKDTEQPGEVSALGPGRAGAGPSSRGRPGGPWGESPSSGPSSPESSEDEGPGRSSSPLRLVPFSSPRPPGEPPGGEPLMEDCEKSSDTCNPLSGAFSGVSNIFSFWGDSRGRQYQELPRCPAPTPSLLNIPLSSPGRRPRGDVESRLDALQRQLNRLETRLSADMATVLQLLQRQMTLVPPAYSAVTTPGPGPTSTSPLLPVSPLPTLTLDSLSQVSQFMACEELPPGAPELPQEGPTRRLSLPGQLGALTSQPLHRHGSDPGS

| Compound | hERG current change (%, negative = inhibition) at 10uM |
| --- | --- |
| N#Cc1ccc(OCc2nnc3n2CCCCC3)cc1 | -17.5% |
| CCCCCCc1cc2cc(/C(N)=N/NC(=O)c3ccncc3)c(=O)oc2cc1O | 14.4% |
| COc1ccc(Nc2ncnc3c2cnn3Cc2ccccc2)cc1 | -18.1% |
| Cc1cccc(C)c1-n1nnnc1C1(Nc2ccccc2)CCCCC1 | -4.36% |
| CCOc1ccc(NC(=O)C2CCN(S(=O)(=O)CC)CC2)cc1 | 15.7% |
| CC(C)CCn1c(C(C)O)nc2ccccc21 (stereo not shown) | 12.7% |
| Cc1ccccc1NS(=O)(=O)c1cc(OCC(N)=O)c(C)cc1Cl | 5.68% |
| Cc1ccc(N(C)C(=O)CC(C)S(=O)(=O)c2ccc3c(c2)NC(=O)CO3)cc1 (stereo not shown) | -1.4% |
| CN(C)C(=O)c1cc(-c2ccccc2)no1 | 32.8% |
| O=C(COC(=O)CCSc1ccccc1Cl)Nc1ccc(F)cc1F | 4.36% |
| COc1cnc(-c2ccccn2)nc1Oc1cccc(C(F)(F)F)c1 | 2.9% |
| O=C(NC(=S)NCCO)c1sc2ccccc2c1Cl | -0.142% |
| CCC(=O)N(CC)Cc1cc(=O)[nH]c2ccccc12 | 1.27% |
| Cc1ccccc1CC1(CO)CCCN(C(=O)CCN2CCCO2)C1 (stereo not shown) | 9.14% |
| O=C(COC(=O)c1cccc(-n2cnnn2)c1)c1ccc(Br)cc1 | 9.98% |
| COCc1cc(C)nc2sc3c(=O)oc(C)nc3c12 | -11.1% |
| Cn1cc(CCC(=O)N2CCCC(CCC(=O)NCc3ccccc3F)C2)cn1 (stereo not shown) | 3.97% |
| CCOc1cc(C(=O)Nc2cccnc2)cc(OCC)c1OCC | 10.1% |
| C=CCn1c(O)c(N=O)c2ccccc21 | 12.3% |
| CCOC(=O)C(NC(=O)c1ccccc1)=C1C=C(C)OC(C)=C1 | 14.5% |

| Compound | hERG current change (%, negative = inhibition) at 10uM |
| --- | --- |
| COc1cc(CNc2ccc(N3CCCC3)cc2)cc(Cl)c1OC | 9.98% |
| Cc1nc([N+](=O)[O-])cn1CC(O)c1ccc(-c2ccccc2)cc1 (stereo not shown) | -44.3% |
| N/C(=N\OC(=O)c1ccco1)c1ccccc1 | 2.21% |
| Cc1ccc(NC(=O)c2cc(-c3ccccc3)nn2-c2ccccc2)c(Br)c1 | -3.82% |
| Cc1ccc(S(=O)(=O)CCC(=O)Nc2cccc([N+](=O)[O-])c2)cc1 | -24.3% |
| Cc1cc(C)c(-c2noc(C(=O)OC(C)(C)C)c2C(=O)OC(C)(C)C)c(C)c1 | 6.28% |
| Cc1ccc(CNC(=O)C2(NC(=O)Nc3ccc(C)cc3)CCCCC2)cc1 | 10.6% |
| Cc1cc(C)cc(NC(=O)c2cc(Cl)sc2Cl)c1 | 8.61% |
| CC1CCCN(C(=O)C(C)Sc2nc(-c3ccccc3)cc(C(F)(F)F)n2)C1 (stereo not shown) | 7.42% |
| O=C(Nc1ccc2cn[nH]c2c1)c1ccccc1F | 6.91% |
| CCOCCn1c(CN2CCN(c3ccccc3)CC2)nc2c1c(=O)n(C)c(=O)n2C | -22.1% |
| O=C(NCC(=O)N1CCN(C(c2ccccc2)c2ccccc2)CC1)c1ccccc1F | -0.366% |
| CC1(C)c2ccccc2-n2c1cc1oc(=O)cc(O)c1c2=O | 8.01% |
| NC(=O)c1nn(CC(=O)Nc2ccc3c(c2)OCO3)cc1[N+](=O)[O-] | 19.6% |
| O=[N+]([O-])c1cc(Cl)cc2c1nc(NCCO)c1ccccc12 | 21.7% |
| CC(C)CNc1oc(-c2ccco2)nc1C#N | -15.3% |
| O=C(O)CCNC(=O)COc1ccc2c3c(c(=O)oc2c1)CCCC3 | 15.2% |
| O=C(Nc1ccccc1)c1ccccc1Oc1ccc(C(F)(F)F)cc1[N+](=O)[O-] | 9.75% |
| CCOC(=O)CSc1nc2cc(S(=O)(=O)N3CCOCC3)ccc2n1CC | -26.2% |
| CCC(=O)N1CCN(c2ccc(NC(=O)c3cccs3)cc2)CC1 | -0.84% |

| Compound | hERG current change (%, negative = inhibition) at 10uM |
| --- | --- |
| CCn1c(C)c(C(C)=O)c(N2CCN(c3ccc(F)cc3)CC2)nc1=S | -37.8% |
| Cc1nc2ccccc2c(=O)n1NC(=O)Nc1ccccc1 | -8.45% |
| Cc1ccccc1Cn1ccc(NC(=O)c2nn(C)cc2[N+](=O)[O-])n1 | -1.2% |
| O=C(NCc1cc(C(F)(F)F)cc(C(F)(F)F)c1)C1CC(c2c(Cl)cccc2Cl)=NO1 (stereo not shown) | 12.9% |
| C[C@@H](NC(=O)c1cc2c([nH]c3ccccc32)c(-c2ccccc2)n1)C(=O)O | 10.3% |
| COc1ccc(C(=O)N/C(=C\c2ccco2)C(=O)NCc2cccnc2)cc1 | -66.7% |
| Cc1ccc(C(=O)CCC(=O)Nc2ncccc2O)cc1 | 17.1% |
| Cc1ccc(N2CC(C(N)=O)CC2=O)cc1C (stereo not shown) | -3.71% |
| CCOC(=O)C1CCCN(C(=O)Cn2ncc3c([nH]c4ccccc43)c2=O)C1 (stereo not shown) | -27.8% |
| COc1ccc([C@H]2CC(=O)C=C(c3cccc(C#N)c3)C2)cc1 | -72.3% |
| Cc1ccn2cc(-c3nonc3C)cc2c1 | -16.9% |
| Cc1ccc(N2CC(=O)N(c3ccc(C)cc3)CC2=O)cc1 | 13.3% |
| OC(CN1CCN(c2ncc(C(F)(F)F)cc2Cl)CC1)c1ccccc1 (stereo not shown) | -58% |
| Cc1ccc(S(=O)(=O)NC2c3cccc4cccc(c34)C2Sc2n[nH]c(N)n2)cc1 (stereo not shown) | -9.13% |
| Cc1ccc(Cn2ccnc2SCC(=O)NC2CCCC2)cc1 | -3.74% |
| CCCCCc1ccc(-c2ccc(C(=O)O)cc2)nc1 | -5.62% |
| CC(=O)c1sc(NC(=O)c2ccc(Cn3cc(Br)cn3)o2)nc1C | -17.8% |
| CC(C)(C)c1ccc(S(=O)(=O)N2CCN(C(=O)C3CCC3)CC2)cc1 | -3.35% |
